According to the supplement of paper PMC3334620:
Over roughly 33,000 sequences, “E-score (-0.5 to 0.5)” has its median near -0.01; the highest 2% begin near 0.26. The list shows a part of the results.

What follows are sequences tested against Ste12 (UniProt P13574) (assay: PBM E-score (8-mer binding enrichment) (E-score (-0.5 to 0.5)); higher = stronger / more preferred TF binding; most listed sequences are background and not binding sites). Details: protein concentration: 200 nM; construct: GST-DNA-binding domain.
How it was run: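 Full-length yeast transcription factors or their DNA-binding domains, GST-tagged and expressed with PURExpress, were applied at about 100-200 nM to universal all-10-mer Agilent arrays. These arrays had been made double-stranded by primer extension on fresh or once-stripped slides. Detection used fluorescent anti-GST, normalisation used masliner, and E-scores for ungapped eight-base words pooled with reverse complements came from the Universal PBM Analysis Suite.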

Sequence	PBM E-score
AGTAAAAT	0.122
CAATACAC	0.0704
ACTGTGCT	-0.136
ACCCGAGA	-0.0344
AGACCCGG	-0.00476
CGGTGAGA	0.0281
GCACCACC	-0.0507
CCTACAAA	-0.0141
CACTGGCG	0.0948
GGGCCTAC	-0.266
ATGTCCCG	0.134
CGTCAGAG	-0.0346
GCCGTAGC	-0.171
AGGCGATA	-0.0277
GTGTTACA	0.19
GACGACAA	0.134
AAACGCTA	0.112
TCCGGACA	-0.0855
TACCTATA	0.106
AATCCAAG	0.0843
AAGTAAAA	0.207
AAAACCTA	0.283
CCGTACCC	-0.105
CGCCGCCA	0.0918
ACCTCTAT	-0.0679

Sequence	PBM E-score
GTTTAATA	0.179
ACTGACTA	-0.184
AAGCCGAA	0.201
AACGCTGC	0.095
ATGATACC	0.0159
ACAAAAGC	0.133
GTGCTCCA	-0.217
CAAATGTG	0.224
AGGGAGAT	-0.134
AAGTGAAC	-0.161
AAGTGTCA	0.0167
GCACACAA	-0.0442
GCCACTAA	-0.0737
ACTCGGCA	0.0505
GCTCGTAA	0.0527
GAGCTCTA	-0.0421
CGCCTGGA	-0.186
AATCAACA	0.29
CTTGAGCC	-0.171
GCGAGTCC	-0.187
CTGTCGCC	-0.0732
ATCGGGCC	-0.141
TAATTCAA	0.12
GACTCGAA	-0.143
ACGTAAGA	-0.0585

Sequence	PBM E-score
CGTGGATC	-0.215
GATGGCGC	-0.157
GTCACACA	0.131
ACTACTAT	0.155
ATAGGCAT	0.0191
CTGTCAAA	0.0412
AACTCCTG	-0.0735
AACCGATA	0.156
TATCTCAA	0.249
GATTTGCA	0.00045
ACCATGGC	0.0464
CCATCCCG	-0.176
AAAAGATA	0.201
CTTATCCA	0.0913
GCCTTCGA	-0.115
GGCAATAC	0.0406
CGAGACCG	0.0525
AGTGGAAA	-0.0995
AAGCAGAC	-0.00074
TCTAGACA	0.0632
CCGTGCGA	-0.00195
CTGAAAGA	0.00814
ATCAACAC	0.0307
CTTCATAC	0.149
ACATCTAG	0.0498

Sequence	PBM E-score
CGTTGCAG	-0.0969
ACATTAGA	0.0281
CCTAATAG	-0.0795
GGTGTGAA	0.19
CACACATG	0.0585
GAGAGCGA	-0.287
CCTTTGCC	-0.156
AATTCGTA	0.131
GTGCTTTA	0.163
CCGGTTGC	0.0807
ACACCGTG	-0.12
AATGGCGA	0.0256
AGGGGTTA	-0.0557
GCCTTCAC	-0.0178
CACTTTGG	0.0297
TCGATAAA	0.111
CATCTAAG	-0.148
AGACCTAC	-0.172
GCGAAAAA	0.25
AGACGGCC	-0.195
CAAATTGG	0.157
AAATGGGA	-0.125
CCACTGCA	-0.113
CAAGATGG	-0.0191
CCTAGCTC	-0.187

Sequence	PBM E-score
TAATCGAA	0.185
GGTTTTAA	0.298
AGACCCTG	-0.162
AACATGCA	-0.0993
CCAACCCG	-0.0334
GGCTTGAA	0.0677
CGTTACTC	0.00531
CCGGTTAA	0.0102
GGGGAGAA	0.109
CGCCCCCC	0.0158
CGCAGGTA	-0.0531
AGCCGGAC	0.096
ATTTATAC	0.195
AATTGGCC	-0.137
GCCTTCCA	-0.179
ACCTTATA	0.15
CCAAACGG	-0.0425
ACCTAGAA	0.0054
TATCATGA	0.0256
GACCCGAC	-0.0152
GACGGCAC	-0.181
AGTTGGAT	0.00422
CGACATAC	-0.00078
GCAGGATA	-0.0749
AGTTACAC	0.103

Sequence	PBM E-score
ACCTCCTA	-0.143
CAGAATCG	-0.0269
ATATAGAG	-0.0649
CCTTAAGA	-0.0184
GAACAGAA	0.187
ATTCCCTC	-0.00224
AAGCGGGT	-0.0385
CAAGTGTC	0.0254
AACCAGAG	-0.0961
CCAATGTA	-0.0229
GCACGACC	-0.208
GTAAAGTA	0.149
ACCGTGCC	-0.0247
CTTATTAC	0.0999
CGGAATTC	0.0484
CACGTAGG	-0.194
CCCGGGCG	0.129
ACGTACTG	-0.171
CAGAAGCA	-0.0188
ACGGCTCA	-0.0811
ATACTAAC	0.146
ACGTGCTC	-0.174
AGCGAGAA	-0.00776
ACGTATCG	-0.108
TCAACAGA	0.0529

Sequence	PBM E-score
CGCAGTGC	-0.204
CTACCCAC	-0.156
ACGAGTAA	0.175
GCTCAGTA	-0.0329
ATACAGCG	0.03
CTTATAAC	0.181
AAAGTTTG	0.124
CTCGGCCA	-0.0374
TCCTGTAA	-0.00485
ATGTATTC	0.149
ACACCTGC	-0.00619
ACAATTCA	-0.0546
ACCTACTG	0.0397
CTGCGAGA	-0.177
GATCACCC	-0.0484
ACTGCTGG	-0.112
CGTGCACC	-0.0683
CACTAGAA	-0.00622
CGAATTTC	0.0534
CACCTCCG	-0.0552
ATCTAGCG	-0.245
CCTTTGGC	-0.0779
AGTGGACA	0.0605
CGGGATAA	0.133
AGTTCAGG	-0.127

Sequence	PBM E-score
CACAAACG	0.107
CCGTGGAC	-0.162
CGCGTATA	0.0947
CGGATTAA	0.152
GTCCGAAC	-0.0313
AGGGGCAC	-0.225
CACGGGCC	-0.222
CACGACTA	-0.116
GCTAGCCA	-0.284
GTTACCGA	-0.135
CTCTATGC	-0.00383
TAGAACAA	0.0985
CGAGGAGC	-0.00929
GCAACTAC	-0.0377
TCCAGCGA	-0.259
AACAACTA	-0.00598
ATCGTATG	0.115
CTATAAAA	0.235
TAGACCGA	0.0211
CCTCATTC	0.0342
GCCTAATA	-0.081
ATGCGTCA	-0.0446
AAGTAACC	-0.00977
GCGACAAC	0.0808
GTACTCCA	-0.26

Sequence	PBM E-score
GAATTCTA	0.107
GAAGTTCC	-0.138
CCAACGAA	0.0604
CTGAACCC	-0.0736
AGGTGCGC	0.0163
CGAACCCC	-0.135
ATGTTGTC	0.0286
ATAGCATG	-0.237
GGATAAAA	0.279
AGACACAC	-0.0908
CACGACAC	-0.00344
CCACAAGA	-0.037
CCGGCGGC	-0.0443
ACGTCAGA	-0.103
CGGTGAAG	-0.147
AAGCCTTC	-0.093
CTGGACTC	-0.106
GTATCATA	0.163
CCATCAAA	0.0842
CAGATCAA	0.00349
GCCAAGCA	-0.00259
ATAGCCCC	-0.137
CCAGAAGC	-0.0194
TAATCTAA	-0.00866
GATACGGC	-0.0222

Sequence	PBM E-score
CTAATACA	0.0713
AAATAACA	0.22
GCACACGC	-0.0287
AAGACCCA	-0.0488
AGTGGGAT	-0.00928
CCTTCCCA	0.127
CGCCCGCG	0.0652
CGGGTACA	-0.056
CACCGTAG	-0.0576
ACTCCTAT	-0.142
CCTTTCGC	-0.0642
CGTTGGTC	-2e-05
AATTTTAG	0.105
AGTGCGGC	-0.122
ATACGCTC	-0.00787
CTACTCTC	-0.244
CCATCGCA	-0.0765
GGCCTATA	-0.0877
AGAAATTG	0.209
ACGAGCAC	-0.0746
ACCTTCAA	-0.0704
CCATCTCA	-0.0464
CAAGTCGC	-0.3
CCGACAAG	0.0327
CCCTCTCC	-0.13

Sequence	PBM E-score
ATATGTGA	0.0926
CCAGTGGA	-0.208
AGTTGAAA	0.19
CGTTTTGA	0.275
CATCTGCG	0.108
CCAAGAGA	-0.165
AGATGCGA	0.0971
CTCCGGGA	-0.0314
AAGAAGCC	0.151
CGAGATTA	0.148
TCGTGGAA	0.114
CCATTAAC	0.037
AGACTCTC	-0.203
GAGTAATA	0.104
ACATTACT	0.015
GTTGAAAC	0.399
TGGCACAA	0.113
ATAACTGA	0.053
TACCTAAA	0.138
GGGCGGAC	0.0634
CTGTGCGC	0.0348
AGGTTCAA	0.0378
ATAGTAGG	-0.0333
CTTCACAC	0.104
AGTCCCGA	-0.185

Sequence	PBM E-score
CTCGCTGC	-0.0584
GTCCAACA	-0.0893
CTTATGGC	-0.0784
AAGACCGT	-0.112
CTAGCCGA	-0.00765
TAACTCCA	-0.0982
GCGCCTCC	0.0245
ACGCTGAA	0.0183
GGGCTTTA	-0.207
CACTTGTC	-0.0538
ACGTCCGG	-0.0191
AGCATCAA	0.0282
AGTTAGGC	0.00744
AACGTCAT	-0.0263
AGCAAACG	-0.0967
ATGAGCGA	0.0332
ATTTAACC	0.252
GTTTAGCA	-0.0932
TCTACAGA	-0.082
CACGTTGA	-0.0208
GGTTCGGA	-0.0567
GCGGCACA	0.0469
GACCCGGC	-0.0043
AAGCGAGA	0.108
ACCTCGGA	0.0604

Sequence	PBM E-score
GCCAGGCC	-0.175
AACTCAAC	0.0375
GTCATCAA	-0.0512
CAAATGAC	-0.0229
GCGTAGTA	-0.0309
AATAGCAC	-0.262
ATTTTCGC	0.223
CTGGCACA	0.0177
ATGGGATG	-0.00677
ACCTAAGG	-0.114
ACCTCTGA	-0.0109
GAGAGGGC	-0.308
AAACGCCG	0.192
AGTCTAAC	-0.114
GCAACACA	-0.044
AACCATGT	0.0364
ACCGAATG	0.0423
GTATCGAC	-0.00788
ATTCACCG	0.207
CATTTAAC	0.212
CTCGCCAC	-0.0284
CCCAAGGA	-0.173
AACAATAA	0.301
ATCACCAT	-0.00836
CAACGGGG	0.0122

Sequence	PBM E-score
CCGTCAAG	-0.0586
ACATCAGA	0.109
AGTGATTC	-0.0998
ACGGTAAT	-0.153
ATCCATAA	0.167
AAAGGCCC	-0.109
AGCATTCA	-0.0697
GATGCATC	-0.022
ACTAATTC	0.0758
CAAGGTGC	-0.296
GTAGAGTA	-0.0214
GGTCACAA	-0.022
GACTAATC	-0.0033
GTCCCAAC	0.0409
ATCTTGGG	-0.16
AACCTGGC	-0.0729
CGAGATGA	-0.00756
CCCCTGGC	-0.159
CAGTGAAG	0.0774
